Reference: patent US20090053212A1

Biological target: thrombin-cleaved human osteopontin (human), P10451
Assay: cell-based or functional assay

thrombin-cleaved human osteopontin (human), P10451, sequence (P10451 17-314): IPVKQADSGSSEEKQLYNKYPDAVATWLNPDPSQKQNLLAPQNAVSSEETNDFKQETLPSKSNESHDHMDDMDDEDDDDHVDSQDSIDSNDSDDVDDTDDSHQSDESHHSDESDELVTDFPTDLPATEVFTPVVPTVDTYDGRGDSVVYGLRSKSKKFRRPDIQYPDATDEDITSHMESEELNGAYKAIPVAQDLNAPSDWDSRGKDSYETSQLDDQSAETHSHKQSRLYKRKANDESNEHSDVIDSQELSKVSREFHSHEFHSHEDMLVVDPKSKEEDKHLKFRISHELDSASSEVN

Mean cell count (migration of TNF-alpha-activated human peripheral blood monocytes, 48-well microchemotaxis chamber; antibody 50 ug/mL): 723 cells/mm^3
B1: R2K1v1.7 antibody (antibody, human IgG1, kappa)
heavy: QVQLQQSGAEVKKPGASVKVSCKALGYTFTDYEMHWVKQTPVHGLEWIGAIHPGRGGTAYNQKFKGKATLTADKSTSTAYMELSSLTSEDTAVYYCTRITGYFDVWGQGTTVTVSS[not shown - human IgG1 constant region]
light: DVVMTQSPLSLSVTLGQPASISCRSSQSIVHSNGNTYLEWYLQKPGQSPQLLIYKVSNRFSGVPDRFSGSGSGTDFTLKISRVEAEDVGVYYCFQGSHVPLTFGQGTKLEIKRTVAAPSVFIFPPSDEQLKSGTASVVCLLNNFYPREAKVQWKVDNALQSGNSQESVTEQDSKDSTYSLSSTLTLSKADYEKHKVYACEVTHQGLSSPVTKSFNRGEC
